# In the supplement of paper PMC3334620:
# In all, about 33,000 sequences were measured (“E-score (-0.5 to 0.5)”: median about -0.053, highest 2% from about 0.37 on). The list shows a part of the results.
# Molecular target: Hap1 (UniProt P0CE41)
# Assay: PBM E-score (8-mer binding enrichment) (E-score (-0.5 to 0.5)); higher = stronger / more preferred TF binding; most listed sequences are background and not binding sites
# Conditions: protein concentration: 200 nM; construct: GST-DNA-binding domain
# How it was run: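 For each ungapped eight-base word taken together with its reverse complement, the Universal PBM Analysis Suite assigned an E-score. Binding data came from GST-tagged yeast transcription factors, applied at about 100-200 nM, on universal all-10-mer Agilent arrays made double-stranded by primer extension. Fluorescent anti-GST marked bound protein, and scans were normalised with masliner.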
# Sequence of UniProt P0CE41 (P0CE41 whole entry): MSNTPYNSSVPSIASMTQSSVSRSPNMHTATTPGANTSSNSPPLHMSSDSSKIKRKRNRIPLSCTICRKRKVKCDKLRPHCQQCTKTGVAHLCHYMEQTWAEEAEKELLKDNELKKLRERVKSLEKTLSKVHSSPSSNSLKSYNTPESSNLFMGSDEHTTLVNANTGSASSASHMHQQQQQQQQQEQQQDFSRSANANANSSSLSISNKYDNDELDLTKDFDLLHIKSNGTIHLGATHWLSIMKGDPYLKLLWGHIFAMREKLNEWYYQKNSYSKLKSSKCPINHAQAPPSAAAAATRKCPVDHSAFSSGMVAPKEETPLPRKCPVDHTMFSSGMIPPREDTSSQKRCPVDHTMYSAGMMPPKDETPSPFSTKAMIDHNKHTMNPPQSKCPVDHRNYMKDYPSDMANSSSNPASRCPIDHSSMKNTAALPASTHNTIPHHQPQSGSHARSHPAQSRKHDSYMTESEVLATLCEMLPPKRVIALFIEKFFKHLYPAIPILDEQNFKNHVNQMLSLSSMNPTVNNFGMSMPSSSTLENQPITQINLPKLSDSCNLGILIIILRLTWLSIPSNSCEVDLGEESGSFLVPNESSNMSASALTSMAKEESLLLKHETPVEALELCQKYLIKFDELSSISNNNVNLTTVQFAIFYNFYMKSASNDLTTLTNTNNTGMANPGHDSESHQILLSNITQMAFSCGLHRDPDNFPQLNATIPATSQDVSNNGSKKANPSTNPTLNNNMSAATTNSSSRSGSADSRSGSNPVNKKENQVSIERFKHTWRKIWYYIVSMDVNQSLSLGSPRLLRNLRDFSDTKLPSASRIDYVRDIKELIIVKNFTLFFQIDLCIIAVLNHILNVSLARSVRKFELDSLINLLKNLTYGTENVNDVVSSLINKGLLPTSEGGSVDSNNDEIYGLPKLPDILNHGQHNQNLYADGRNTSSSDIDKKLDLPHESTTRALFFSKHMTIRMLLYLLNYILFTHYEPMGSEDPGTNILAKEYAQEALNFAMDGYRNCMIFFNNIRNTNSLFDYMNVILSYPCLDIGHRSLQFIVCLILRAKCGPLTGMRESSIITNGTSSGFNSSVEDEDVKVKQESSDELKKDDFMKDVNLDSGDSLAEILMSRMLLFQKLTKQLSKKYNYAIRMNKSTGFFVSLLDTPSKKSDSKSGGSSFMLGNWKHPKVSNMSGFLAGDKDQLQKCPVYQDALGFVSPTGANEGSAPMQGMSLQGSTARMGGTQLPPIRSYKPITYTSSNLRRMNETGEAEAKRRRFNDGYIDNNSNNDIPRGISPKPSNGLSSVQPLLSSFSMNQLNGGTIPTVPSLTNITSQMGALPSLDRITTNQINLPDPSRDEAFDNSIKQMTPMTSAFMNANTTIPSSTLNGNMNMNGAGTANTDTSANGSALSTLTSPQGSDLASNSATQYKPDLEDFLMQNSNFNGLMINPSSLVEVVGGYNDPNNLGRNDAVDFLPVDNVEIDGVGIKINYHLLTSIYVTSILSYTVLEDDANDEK
row,Sequence,PBM E-score
1,AGGTGCGG,0.219
2,ATCGAAAG,-0.0567
3,GGTGCACA,-0.0927
4,AAACATTT,-0.119
5,AAGACAGA,-0.12
6,ACCGCACT,0.16
7,CCTATTTA,0.0388
8,AGGAACCC,-0.0569
9,AATAACAG,-0.0726
10,CAACAGGA,-0.205
11,ATACCCGC,0.253
12,CTACGGGA,0.134
13,AGTCGAAG,-0.235
14,ACCTCGCT,0.0563
15,TGTGCACA,-0.212
16,CAACGTAG,-0.25
17,ATACGACG,0.0411
18,GCAGACGA,-0.028
19,CCGTTAGA,0.318
20,GCGGCACC,0.0384
21,CGCTCTTA,0.157
22,CTGACCCA,-0.119
23,CCCGTTGC,-0.0454
24,GCTGCGAC,-0.234
25,GCAAGTTA,0.0009

row,Sequence,PBM E-score
1,CGCGGAGC,0.274
2,CATAGTGC,-0.0586
3,GGTTTGAA,0.0975
4,AAGTTAGC,-0.0552
5,ATATTCCG,0.318
6,AGTGTGTC,-0.0863
7,ACACCCGT,0.136
8,GTCCGAAA,0.421
9,CGCAAGGA,-0.104
10,GGGCTATA,-0.0464
11,ACCACTAA,-0.152
12,ACGACAAT,-0.0773
13,AAGGTGGT,-0.0796
14,CGAACAAG,0.121
15,ATTAGAGA,-0.186
16,GCATGATA,-0.102
17,CCAGTCAG,-0.243
18,CAAAGAAG,-0.05
19,CCATGGAG,-0.15
20,GACAGCAC,0.197
21,GACAGAAA,-0.0244
22,AGCGGGTC,0.126
23,AACTCGCA,-0.29
24,GCACATTA,-0.0162
25,AGGAGGGG,-0.241

row,Sequence,PBM E-score
1,AAATTGAA,-0.241
2,CTCACGAA,-0.307
3,ATATGGGA,-0.0202
4,CCTAGCCA,-0.234
5,AAGAGAAC,-0.128
6,CGGCTTAC,0.128
7,AAGGAAAT,-0.0822
8,ATCTGTCC,0.106
9,CGCAGCAG,-0.108
10,GTGCCGAA,0.237
11,AGGCAGGA,-0.229
12,AAGAACAG,-0.248
13,CGAGAGTC,-0.0408
14,AGTTGTAC,0.0584
15,CTATTCTC,0.165
16,CTGGGCAC,-0.129
17,CATACTAA,-0.234
18,ACTGATAA,-0.174
19,ACTCCTCT,-0.0603
20,TAGAGATA,0.0856
21,CCGACGTC,0.29
22,ACTGGATA,0.0587
23,CTTGCTAC,-0.174
24,ACACTTAA,-0.171
25,AACCCCGT,0.329

row,Sequence,PBM E-score
1,ATGTAGGG,0.0517
2,ATTAATCC,0.189
3,CCCACGCA,-0.15
4,TCTGCTAA,-0.0319
5,ACGTGGTC,-0.191
6,AGTTAATG,-0.0334
7,CTTGACGA,-0.192
8,GATACCAA,0.0899
9,CTCGCAAC,-0.237
10,GCCTACGC,-0.271
11,AATAATAG,-0.0859
12,CATCGCGC,0.0953
13,AAAGTATG,-0.0965
14,ACGTGGTA,-0.169
15,CAAAAAAG,-0.0757
16,AGCGAATC,0.0408
17,GATACTCC,0.0862
18,GCCTAGAC,-0.0841
19,CAGTATAA,-0.00182
20,AAACAGTC,-0.31
21,TCGTTTCA,-0.0813
22,CGAGTCGA,-0.0614
23,ACATTGCC,-0.00388
24,CGGGAGAG,0.0704
25,TCGAAGAA,-0.122

row,Sequence,PBM E-score
1,ACAGAAAT,-0.108
2,ACCTGTAA,-0.0772
3,CCCAGTAA,-0.148
4,GCGTTAAC,0.16
5,CTTTATGC,-0.0571
6,ACATCGAG,-0.128
7,TTGTAAAA,-0.116
8,CCCTCCAA,-0.119
9,ACTATCTG,-0.196
10,AAGTGCAT,-0.149
11,AGGCTCAT,-0.159
12,ACCAGAAA,-0.0507
13,CGAGATAG,-0.0743
14,TAATCCGA,0.346
15,CTTAAAAG,-0.193
16,ATTCGCAG,-0.0493
17,ACAAGGAG,0.0103
18,AAGTTAGA,-0.0271
19,ACAAGATG,-0.183
20,AAATTGGC,-0.103
21,AACGGCTG,0.0402
22,CCATACAC,0.028
23,AGCGCGAG,-0.00772
24,AAGCCACG,0.046
25,GCACGTCA,-0.132

row,Sequence,PBM E-score
1,CCTACAAC,0.0727
2,GCCACACC,-0.115
3,ATCACGTA,-0.284
4,ATTTGTAG,-0.172
5,AGAGCGAT,0.0667
6,ATCTCAGG,-0.0639
7,AGCCAACA,-0.189
8,ACCAAAGC,0.0386
9,AGGGTGGG,-0.06
10,ACGCGTGC,0.0518
11,CATGTTAG,-0.318
12,ATGATTTG,-0.153
13,AGCCGGCA,0.334
14,AAGCGCCT,0.0872
15,GAGGGCCC,-0.0221
16,CACTTTGA,-0.135
17,CGAATTTA,0.0847
18,ACCCCTGC,-0.214
19,GCAATGTA,-0.155
20,GCATTGGC,-0.311
21,TAGGCATA,-0.153
22,ATTGGATC,-0.0945
23,CGGGAGGC,0.00156
24,TGGTACAA,-0.376
25,ACTAATCC,0.249

row,Sequence,PBM E-score
1,TATTATGA,-0.0876
2,GCCTGCCC,0.0521
3,AACCGCGG,0.323
4,CTGAGTTA,-0.101
5,CAAAGTTG,-0.203
6,AAGAACAT,-0.0362
7,CACATCGA,-0.25
8,AAGGGGAT,0.0838
9,ATATTCGC,0.054
10,GTCCGAGA,0.437
11,AACTCACT,-0.289
12,CGGCTAGC,0.0611
13,TCCCCGCA,0.303
14,GGCCAAAC,0.0983
15,CATTGGCA,-0.165
16,AGTCTTGG,-0.14
17,CTGAATAC,-0.181
18,TCATGCAA,-0.125
19,CAGAAAAG,-0.112
20,AAATCTCC,0.284
21,AAGTCGAT,-0.0902
22,CAGATAGG,-0.142
23,AGCGATAC,0.065
24,ACGCGCAG,-0.272
25,GAAATCGC,0.196

row,Sequence,PBM E-score
1,AACTGTTC,0.212
2,CCCCCTAG,-0.21
3,AATCCAGC,0.00423
4,GATACCCC,0.197
5,ACTCATCT,-0.23
6,CTGGAGAA,-0.196
7,CAATTCGG,0.267
8,AGCCCCAA,-0.311
9,CCACACTA,-0.0143
10,CCTATGTC,-0.0218
11,CCCATGAC,-0.092
12,AAGGTATT,0.0721
13,AAAACGTT,-0.0584
14,ACCGGATA,0.359
15,CAATAGTC,-0.0523
16,GGCAGGCA,-0.135
17,GTGGACTA,-0.0056
18,CCTCAAGC,-0.0575
19,AAGCGGTG,-0.0488
20,ACGCGCCT,0.0003
21,GTGCGGGA,0.153
22,CAAATAAA,0.0232
23,AGTGCGCG,0.0751
24,GTGATCAA,-0.164
25,CTAATGAG,-0.0935

row,Sequence,PBM E-score
1,ATGTTACC,0.16
2,CCGCACGA,0.111
3,ATAGCACG,-0.142
4,CTGTAGGA,-0.126
5,AAGAGGCG,-0.0937
6,AGAGCCAC,-0.18
7,AAGCACTT,-0.132
8,GCCTAGCC,-0.0543
9,CGTGACCA,-0.142
10,AGCTCATA,-0.0177
11,ACACAACT,-0.245
12,AGCATTGA,-0.364
13,AGGGAGCA,-0.162
14,TTCGTAAA,-0.199
15,GCGAGCCC,0.064
16,AATAGTCG,0.0241
17,CGGTAACA,0.305
18,CCTAGATA,-0.263
19,GCCCGTGA,0.175
20,CTGGCGTC,-0.264
21,CACCCGAC,0.277
22,ATTCCCTA,0.0585
23,AAGCGCCA,-0.2
24,CCTTTTCA,-0.184
25,AGTCCAAA,-0.119

row,Sequence,PBM E-score
1,ACTTCAAT,-0.00268
2,ATTGTTGC,-0.248
3,CCAAAACG,-0.0849
4,TACACCAA,-0.213
5,CCACAGGA,-0.058
6,AAGAGCCC,-0.0136
7,TCGCAGAA,-0.138
8,AGGCCACT,-0.269
9,AATAGTCT,-0.174
10,ATGTCGGC,0.135
11,TACCAAGA,-0.253
12,CCCCAGCA,-0.136
13,GCAGTTGA,-0.0785
14,AACTGCCC,-0.0924
15,ACAGTTTC,0.0595
16,ACGCGCGT,0.0252
17,AAAGGGCT,-0.229
18,AGCCTCGG,0.281
19,TATTATAA,-0.0986
20,AGATGTCA,-0.086
21,ACGTACAC,-0.181
22,GGTTATGA,-0.152
23,AAGCTCCC,-0.184
24,CAGGCTCA,-0.294
25,GGTGATCA,-0.174

row,Sequence,PBM E-score
1,ACGGAGTA,0.228
2,AGACATTG,-0.184
3,TACTGAAA,-0.0602
4,GGCTAAGA,-0.076
5,AGCGCCGG,0.353
6,AACCAGTT,-0.058
7,CGTACACC,0.146
8,GCCCCGAC,0.252
9,AGCCTGAT,-0.187
10,GGCGTCGA,0.0569
11,ATACGCAC,0.125
12,ATCGTCCA,-0.0714
13,TGTGGGAA,-0.247
14,CCGACCTC,0.247
15,CTCAGACA,-0.275
16,AATCATTG,-0.315
17,ACGCCGTC,0.158
18,ACTAATGC,0.0692
19,AAGAACTG,-0.108
20,ACGTGCGG,0.0936
21,CTCTTCTA,-0.0379
22,ATATCCTA,-0.0242
23,GGATTTAC,0.415
24,CCCCACGG,0.22
25,GAATCTCA,-0.124

row,Sequence,PBM E-score
1,CTCAGATC,-0.243
2,GAAGGTAA,0.00731
3,GCTACATA,-0.0691
4,CCACGACC,-0.162
5,AGCTACTC,-0.182
6,AAAATGGG,-0.0355
7,CACATTAC,-0.0274
8,AGCTCGGC,0.354
9,AGCCACTA,-0.194
10,CGGTCATC,0.192
11,GAGAAGGA,-0.0299
12,CACTATAG,-0.302
13,CCGGGCCA,0.348
14,GTAAAGCA,-0.131
15,ATAAATAC,0.0813
16,GCGGGCGA,0.296
17,AAGTTTTG,-0.105
18,CGAAACGA,0.0705
19,CAGTCGGA,0.297
20,AGATCTAC,-0.157
21,ATAGATGC,-0.0781
22,GACCCGTA,-0.00899
23,CTGAGTGC,-0.118
24,CTTGGTTA,-0.127
25,CTACTAAA,-0.0678

row,Sequence,PBM E-score
1,CGGAGATC,0.411
2,CAACTCTA,-0.08
3,GTCAATAA,-0.0708
4,TATGATGA,-0.138
5,ACCTTATG,-0.127
6,CGCTACAA,0.0997
7,AAGTAATG,-0.00453
8,AATGCTAG,-0.168
9,ATGTGGCA,-0.172
10,AGTTCGCC,0.0635
11,CGGACGGC,0.327
12,AAGCGATA,0.027
13,ACTTGATA,-0.114
14,CTGCGCCC,-0.217
15,CCTTTACC,-0.0724
16,CGATTGCG,0.157
17,AGTGGTGA,0.0401
18,AGCCATAG,-0.21
19,CCGGACGC,0.366
20,ACAAAACA,-0.0996
21,ATGTAGTG,-0.189
22,CTCACAGA,-0.242
23,GTTATAAA,0.0308
24,AGTTGCAG,-0.198
25,GTTAGTAA,-0.215

row,Sequence,PBM E-score
1,AAGACTTG,-0.189
2,CATGCCAA,-0.295
3,ATGAAAGA,-0.115
4,AACTCCCG,0.333
5,TTACTCAA,0.0459
6,ACTCGGCC,0.361
7,CTTCCCCC,-0.0699
8,ATGCATAC,-0.217
9,TGGGCAAA,0.0173
10,CGACTCCG,0.292
11,AAATAATC,-0.0341
12,ACGCGTTC,0.0769
13,AAAGCGCA,0.171
14,CTAAAATA,-0.22
15,GAGCCATC,-0.132
16,CCACGAAA,-0.167
17,CCCTCCCG,0.0775
18,AAGTCCGC,0.427
19,CTCCGCTA,0.336
